Assay results from the supplement of paper PMC8728848.
The other results are listed elsewhere or left out.

Experiments:
Test in all cases: glycan array binding signal (z-score within array); higher = stronger binding
Conditions in all cases: glycan notation: IUPAC condensed, linker removed
[1] = target: Neu5Ac(a2-3)Gal
Method in brief: (§1)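 Columns mapping to the same glycan were averaged after glycan names were converted to IUPAC-condensed notation. The data come from 3228 arrays in the Consortium for Functional Glycomics database, limited to those with an available protein sequence. Binding is reported as a within-array Z-score averaged across arrays of one protein sequence and across linkers.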

[2] = target: Neu5Ac(a2-3)Gal(b1-3)GalNAc
Method in brief: as §1

[3] = target: Neu5Ac(a2-3)Gal(b1-3)GalNAc(b1-3)Gal(a1-4)Gal(b1-4)Glc
Method in brief: as §1

[4] = target: Neu5Ac(a2-3)Gal(b1-3)GalNAc(b1-4)Gal(b1-4)Glc
Method in brief: as §1

[5] = target: Neu5Ac(a2-3)Gal(b1-3)GalNAc(b1-4)[Neu5Ac(a2-3)]Gal(b1-4)Glc
Method in brief: as §1

[6] = target: Neu5Ac(a2-3)Gal(b1-3)GalNAc(b1-4)[Neu5Ac(a2-8)Neu5Ac(a2-3)]Gal(b1-4)Glc
Method in brief: as §1

[7] = target: Neu5Ac(a2-3)Gal(b1-3)GalNAc6S
Method in brief: as §1

[8] = target: Neu5Ac(a2-3)Gal(b1-3)GlcNAc
Method in brief: as §1

[9] = target: Neu5Ac(a2-3)Gal(b1-3)GlcNAc(b1-2)Man
Method in brief: as §1

[10] = target: Neu5Ac(a2-3)Gal(b1-3)GlcNAc(b1-2)Man(a1-3)[GlcNAc(b1-4)][Neu5Ac(a2-3)Gal(b1-3)GlcNAc(b1-2)Man(a1-6)]Man(b1-4)GlcNAc(b1-4)GlcNAc
Method in brief: as §1

[11] = target: Neu5Ac(a2-3)Gal(b1-3)GlcNAc(b1-2)Man(a1-3)[Neu5Ac(a2-3)Gal(b1-3)GlcNAc(b1-2)Man(a1-6)]Man(b1-4)GlcNAc(b1-4)GlcNAc
Method in brief: as §1

[12] = target: Neu5Ac(a2-3)Gal(b1-3)GlcNAc(b1-2)[Neu5Ac(a2-3)Gal(b1-3)GlcNAc(b1-4)]Man(a1-6)[Neu5Ac(a2-3)Gal(b1-3)GlcNAc(b1-2)Man(a1-3)]Man(b1-4)GlcNAc(b1-4)GlcNAc
Method in brief: as §1

[13] = target: Neu5Ac(a2-3)Gal(b1-3)GlcNAc(b1-3)Gal(b1-3)GlcNAc
Method in brief: as §1

[14] = target: Neu5Ac(a2-3)Gal(b1-3)GlcNAc(b1-3)Gal(b1-4)GlcNAc
Method in brief: as §1

[15] = target: Neu5Ac(a2-3)Gal(b1-3)GlcNAc(b1-3)GalNAc
Method in brief: as §1

[16] = target: Neu5Ac(a2-3)Gal(b1-3)GlcNAc(b1-6)GalNAc
Method in brief: as §1

[17] = target: Neu5Ac(a2-3)Gal(b1-3)GlcNAc6S
Method in brief: as §1

[18] = target: Neu5Ac(a2-3)Gal(b1-3)[Fuc(a1-4)]GlcNAc
Method in brief: as §1

[19] = target: Neu5Ac(a2-3)Gal(b1-3)[Fuc(a1-4)]GlcNAc(b1-3)Gal(b1-3)[Fuc(a1-4)]GlcNAc
Method in brief: as §1

[20] = target: Neu5Ac(a2-3)Gal(b1-3)[Fuc(a1-4)]GlcNAc(b1-3)Gal(b1-4)[Fuc(a1-3)]GlcNAc
Method in brief: as §1

[21] = target: Neu5Ac(a2-3)Gal(b1-3)[GlcNAc(b1-6)]GalNAc
Method in brief: as §1

[22] = target: Neu5Ac(a2-3)Gal(b1-3)[Neu5Ac(a2-6)]GalNAc
Method in brief: as §1

[23] = target: Neu5Ac(a2-3)Gal(b1-3)[Neu5Ac(a2-6)]GlcNAc(b1-3)[Fuc(a1-3)[Gal(b1-4)]GlcNAc(b1-6)]Gal(b1-4)Glc
Method in brief: as §1

[24] = target: Neu5Ac(a2-3)Gal(b1-3)]Neu5Ac(a2-3)Gal(b1-4)]GlcNAc
Method in brief: as §1

[25] = target: Neu5Ac(a2-3)Gal(b1-4)Glc
Method in brief: as §1

[26] = target: Neu5Ac(a2-3)Gal(b1-4)GlcNAc
Method in brief: as §1

[27] = target: Neu5Ac(a2-3)Gal(b1-4)GlcNAc(b1-2)Man
Method in brief: as §1

[28] = target: Neu5Ac(a2-3)Gal(b1-4)GlcNAc(b1-2)Man(a1-3)[GlcNAc(b1-4)][Neu5Ac(a2-3)Gal(b1-4)GlcNAc(b1-2)Man(a1-6)]Man(b1-4)GlcNAc(b1-4)GlcNAc
Method in brief: as §1

[29] = target: Neu5Ac(a2-3)Gal(b1-4)GlcNAc(b1-2)Man(a1-3)[Neu5Ac(a2-3)Gal(b1-4)GlcNAc(b1-2)Man(a1-6)]Man(b1-4)GlcNAc(b1-4)GlcNAc
Method in brief: as §1

[30] = target: Neu5Ac(a2-3)Gal(b1-4)GlcNAc(b1-2)Man(a1-3)[Neu5Ac(a2-3)Gal(b1-4)GlcNAc(b1-2)Man(a1-6)]Man(b1-4)GlcNAc(b1-4)[Fuc(a1-6)]GlcNAc
Method in brief: as §1

[31] = target: Neu5Ac(a2-3)Gal(b1-4)GlcNAc(b1-2)Man(a1-3)[Neu5Ac(a2-6)Gal(b1-4)GlcNAc(b1-2)Man(a1-6)]Man(b1-4)GlcNAc(b1-4)GlcNAc
Method in brief: as §1

[32] = target: Neu5Ac(a2-3)Gal(b1-4)GlcNAc(b1-2)[Neu5Ac(a2-3)Gal(b1-4)GlcNAc(b1-4)]Man(a1-3)[GlcNAc(b1-4)][Neu5Ac(a2-3)Gal(b1-4)GlcNAc(b1-2)[Neu5Ac(a2-3)Gal(b1-4)GlcNAc(b1-6)]Man(a1-6)]Man(b1-4)GlcNAc(b1-4)GlcNAc
Method in brief: as §1

[33] = target: Neu5Ac(a2-3)Gal(b1-4)GlcNAc(b1-2)[Neu5Ac(a2-3)Gal(b1-4)GlcNAc(b1-4)]Man(a1-3)[GlcNAc(b1-4)][Neu5Ac(a2-3)Gal(b1-4)GlcNAc(b1-4)Man(a1-6)]Man(b1-4)GlcNAc(b1-4)GlcNAc
Method in brief: as §1

[34] = target: Neu5Ac(a2-3)Gal(b1-4)GlcNAc(b1-2)[Neu5Ac(a2-3)Gal(b1-4)GlcNAc(b1-6)]Man(a1-6)[Neu5Ac(a2-3)Gal(b1-4)GlcNAc(b1-2)Man(a1-3)][GlcNAc(b1-4)]Man(b1-4)GlcNAc(b1-4)GlcNAc
Method in brief: as §1

[35] = target: Neu5Ac(a2-3)Gal(b1-4)GlcNAc(b1-3)Gal
Method in brief: as §1

[36] = target: Neu5Ac(a2-3)Gal(b1-4)GlcNAc(b1-3)Gal(b1-3)GlcNAc
Method in brief: as §1

[37] = target: Neu5Ac(a2-3)Gal(b1-4)GlcNAc(b1-3)Gal(b1-4)GlcNAc
Method in brief: as §1

[38] = target: Neu5Ac(a2-3)Gal(b1-4)GlcNAc(b1-3)Gal(b1-4)GlcNAc(b1-2)Man(a1-3)[Neu5Ac(a2-3)Gal(b1-4)GlcNAc(b1-3)Gal(b1-4)GlcNAc(b1-2)Man(a1-6)]Man(b1-4)GlcNAc(b1-4)GlcNAc
Method in brief: as §1

[39] = target: Neu5Ac(a2-3)Gal(b1-4)GlcNAc(b1-3)Gal(b1-4)GlcNAc(b1-3)Gal(b1-4)GlcNAc
Method in brief: as §1

[40] = target: Neu5Ac(a2-3)Gal(b1-4)GlcNAc(b1-3)Gal(b1-4)GlcNAc(b1-3)Gal(b1-4)GlcNAc(b1-2)Man(a1-3)[Neu5Ac(a2-3)Gal(b1-4)GlcNAc(b1-3)Gal(b1-4)GlcNAc(b1-3)Gal(b1-4)GlcNAc(b1-2)Man(a1-6)]GalNAc
Method in brief: as §1

[41] = target: Neu5Ac(a2-3)Gal(b1-4)GlcNAc(b1-3)Gal(b1-4)GlcNAc(b1-3)GalNAc
Method in brief: as §1

[42] = target: Neu5Ac(a2-3)Gal(b1-4)GlcNAc(b1-3)Gal(b1-4)GlcNAc(b1-3)[Neu5Ac(a2-3)Gal(b1-4)GlcNAc(b1-3)Gal(b1-4)GlcNAc(b1-6)]GalNAc
Method in brief: as §1

[43] = target: Neu5Ac(a2-3)Gal(b1-4)GlcNAc(b1-3)Gal(b1-4)GlcNAc(b1-6)[Gal(b1-3)]GalNAc
Method in brief: as §1

[44] = target: Neu5Ac(a2-3)Gal(b1-4)GlcNAc(b1-3)Gal(b1-4)[Fuc(a1-3)]GlcNAc
Method in brief: as §1

[45] = target: Neu5Ac(a2-3)Gal(b1-4)GlcNAc(b1-3)GalNAc
Method in brief: as §1

B1: Dectin2 (Homo sapiens), Q6EIG7 (protein)
chain: MMQEQQPQSTEKRGWLSLRLWSVAGISIALLSACFIVSCVVTYHFTYGETGKRLSELHSYHSSLTCFSEGTKVPAWGCCPASWKSFGSSCYFISSEEKVWSKSEQNCVEMGAHLVVFNTEAEQNFIVQQLNESFSYFLGLSDPQGNNNWQWIDKTPYEKNVRFWHLGEPNHSAEQCASIVFWKPTGWGWNDVICETRRNSICEMNKIYL
In the case of B1, the “glycan array binding signal (z-score)” value [1] is reported as -0.177, the “glycan array binding signal (z-score)” value [2] is reported as 0.09 and the “glycan array binding signal (z-score)” value [3] is reported as -0.15. For the same binder, the “glycan array binding signal (z-score)” value [4] was -0.106, the “glycan array binding signal (z-score)” value [5] was -0.178 and the “glycan array binding signal (z-score)” value [6] was -0.165. For the same binder, the “glycan array binding signal (z-score)” value [7] was -0.146, the “glycan array binding signal (z-score)” value [8] was -0.175 and the “glycan array binding signal (z-score)” value [9] was -0.175. For the same binder, the “glycan array binding signal (z-score)” value [10] was -0.116, the “glycan array binding signal (z-score)” value [11] was -0.075 and the “glycan array binding signal (z-score)” value [12] was 0.073. For the same binder, the “glycan array binding signal (z-score)” value [13] was -0.194, the “glycan array binding signal (z-score)” value [14] was -0.195 and the “glycan array binding signal (z-score)” value [15] was -0.184. For the same binder, the “glycan array binding signal (z-score)” value [16] was -0.176, the “glycan array binding signal (z-score)” value [17] was -0.088 and the “glycan array binding signal (z-score)” value [18] was -0.165. For the same binder, the “glycan array binding signal (z-score)” value [19] was -0.114, the “glycan array binding signal (z-score)” value [20] was -0.071 and the “glycan array binding signal (z-score)” value [21] was -0.193. For the same binder, the “glycan array binding signal (z-score)” value [22] was -0.135, the “glycan array binding signal (z-score)” value [23] was -0.178 and the “glycan array binding signal (z-score)” value [24] was -0.206. For the same binder, the “glycan array binding signal (z-score)” value [25] was -0.156, the “glycan array binding signal (z-score)” value [26] was -0.183 and the “glycan array binding signal (z-score)” value [27] was -0.027. For the same binder, the “glycan array binding signal (z-score)” value [28] was -0.193, the “glycan array binding signal (z-score)” value [29] was -0.185 and the “glycan array binding signal (z-score)” value [30] was -0.142. The “glycan array binding signal (z-score)” value [31] was 0.195, the “glycan array binding signal (z-score)” value [32] was -0.203 and the “glycan array binding signal (z-score)” value [33] was -0.201. For the same binder, the “glycan array binding signal (z-score)” value [34] was -0.139, the “glycan array binding signal (z-score)” value [35] was -0.206 and the “glycan array binding signal (z-score)” value [36] was -0.196. The “glycan array binding signal (z-score)” value [37] was -0.189, the “glycan array binding signal (z-score)” value [38] was 0.038 and the “glycan array binding signal (z-score)” value [39] was -0.191. The “glycan array binding signal (z-score)” value [40] was 0.638, the “glycan array binding signal (z-score)” value [41] was -0.182 and the “glycan array binding signal (z-score)” value [42] was -0.122. The “glycan array binding signal (z-score)” value [43] was -0.152, the “glycan array binding signal (z-score)” value [44] was -0.177 and the “glycan array binding signal (z-score)” value [45] was -0.157.
